Assay results published in the supplement of paper PMC10126150.
Values marked as one replicate rest on one cluster of the flow cell; about a third of the high ones do not repeat.

System: ATP
Test: switch fluorescence ratio, 500 uM ATP over buffer (Cy3 cluster intensity, sum of 5 cycles each) (fold (ratio)); higher = stronger signal-on switching upon ATP binding; sequences stand for … in TCGTCGGCAGCGTCAGATGTGTATAAGAGACAGTTTTTTTTTTTTTTTTTTTTTTTTT…TC
Details: aptamer strand: ATP DNA aptamer (quencher-CACCTGGGGGAGTATTGCGGAGGAAGG + anchor), 100 nM annealed; ATP concentration: 500 uM; one replicate
Procedure, shortened: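 Clusters with intensities outside 100-1000 RFU were excluded. The remaining Cy3-labelled switching-strand clusters on a modified Illumina MiSeq flow-cell had been annealed to 100 nM quencher-labelled ATP aptamer and imaged in selection buffer, then after 15 min with 500 uM ATP at 22 °C, for five cycles separated by NaOH stripping and re-annealing. The fluorescence ratio, averaged per switch-domain sequence, is each cluster's summed target-cycle Cy3 intensity over its summed buffer-cycle Cy3 intensity.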
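Note: ATP exposure 15 min at 22 °C before imaging.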

| Sequence | switch fluorescence ratio |
| --- | --- |
| CGTTCCCTAG | 1.04 |
| TACTCTACCG | 1.27 |
| ACCAAAAAAT | 1.13 |
| AGTGGTGACG | 0.946 |
| TCCTAATTCC | 1.1 |
| TGGGTATGTC | 1.03 |
| TGATAGAATG | 0.925 |
| CGAGTTCCGG | 1.04 |
| ATGAGTTA | 0.989 |
| GTGTTCAGGC | 1 |
| CGTGCTGCAG | 1.02 |
| TGAGGTAAAG | 0.965 |
| TAGCGTTAAA | 1.03 |
| AATTTTGTCA | 0.966 |
| GGGTATTTCA | 0.968 |
| ATAGGGGAGG | 1.02 |
| ACACGACTGC | 1.08 |
| ACACAGGTAA | 1.05 |
| ATCCGAAGTA | 1.16 |
| ACATATGCT | 1.04 |
| ACCGGCATCG | 1.03 |
| AAAGTTGACG | 1.02 |
| GCCTTGGATC | 0.997 |

| Sequence | switch fluorescence ratio |
| --- | --- |
| CCTTTAATTC | 1.18 |
| AAGTAGCGGG | 1.03 |
| CACGGCTATT | 0.974 |
| TCCGGTTGAA | 0.954 |
| GGATCACTGC | 1.01 |
| GGAAATGTCA | 0.987 |
| GCCCATATTA | 1 |
| CAATGAATCA | 1.02 |
| AGCTAGTATT | 0.983 |
| AATTATGTCT | 0.984 |
| TGGGAGCGTT | 2.41 |
| ATAGGTCAGA | 0.997 |
| TATGCTATTG | 1.02 |
| GTTTCATTGG | 1.03 |
| ATTTCCCACT | 1.02 |
| TAAGGTTGGA | 1 |
| AGGGGAGAG | 0.993 |
| GATCCAGATT | 1.01 |
| CTTCCAACGG | 1.36 |
| ACACTACCGC | 1.17 |
| CGGTAGCATG | 1.16 |
| TACTACAATC | 1.09 |
| AAGACGTTGC | 1.02 |

| Sequence | switch fluorescence ratio |
| --- | --- |
| CTCACTCGAG | 0.975 |
| TCCGAGATGA | 1.25 |
| ATGACCCCCC | 1.12 |
| CCGGATCTTT | 0.967 |
| TGAGAACTGT | 1.02 |
| AGTGTCTTTT | 0.941 |
| TGCCAAGTCA | 0.976 |
| ACTACTGTGA | 1.05 |
| GGTCTGGAA | 1.04 |
| GGTTTACATG | 0.944 |
| GGATTTGGGA | 1.03 |
| CGCTTATCCG | 1 |
| CCAGCTTCTT | 1.09 |
| GGTTTAGTCT | 1.02 |
| TCCCGTTGGC | 1 |
| GGGGCGGACC | 1.03 |
| TTGTGGCCTG | 0.985 |
| TAGGGCTTGC | 0.874 |
| CGTATAAAGA | 0.962 |
| AAAGCAAGGA | 1.35 |
| ATTATGACGC | 1.08 |
| AATTCGCAAC | 4.46 |
| TTGTCGTTTA | 1.02 |

| Sequence | switch fluorescence ratio |
| --- | --- |
| CTTTAGTAGA | 1.02 |
| GGGCTAAACG | 0.985 |
| TTTATGTACC | 1.11 |
| TTCGTCGGG | 0.993 |
| TAGCACTTGG | 0.993 |
| CGAAAGGTCC | 1.03 |
| GTCTGTGTTC | 0.987 |
| CCCCTAGTGA | 3.72 |
| TCCAGGCATG | 0.983 |
| AAATACCGCT | 1.33 |
| CAGGAATCTT | 0.975 |
| GGGTACCCGG | 0.99 |
| CAGGTTGCGA | 1.01 |
| AAAGGTTGTA | 0.98 |
| CATATTGTA | 0.996 |
| GCGCTTATGA | 1.04 |
| GGGGCCAATA | 1 |
| GAGGCCTTTT | 0.984 |
| GCTAGAGTTC | 0.967 |
| GACGGCAGCA | 1.15 |
| ATCATAACAT | 1.01 |
| TAATGCCCG | 0.979 |
| TAGAATAGAT | 0.999 |

| Sequence | switch fluorescence ratio |
| --- | --- |
| TGAGTTCTAA | 1.03 |
| GAGGGCGATG | 0.969 |
| TTTGAGTTGA | 0.989 |
| GGAAAAAGTA | 1.01 |
| ATAAGCTTGA | 1.04 |
| AGGTTCCGAT | 0.991 |
| TGTATACGTG | 1.01 |
| TATCGAAAGC | 0.964 |
| GTTAATGCCT | 1.01 |
| TAGGCTTGCA | 1.01 |
| CGCCTTGCAA | 2.49 |
| ACGTTGATAA | 1.03 |
| AACTATGGGG | 0.932 |
| ACAGGTACCA | 1.07 |
| GTTTGGACAT | 0.996 |
| ACATGGGACC | 1.07 |
| TCGGCAGATT | 0.997 |
| CAGGGCTAGA | 1.04 |
| TTGTCTGTGG | 1 |
| TCACGATATA | 0.968 |
| CAACGGGTCT | 0.985 |
| AAAGCGCGCC | 0.995 |
| GGAACAGACA | 1.07 |

| Sequence | switch fluorescence ratio |
| --- | --- |
| CGGTTGACTC | 1.05 |
| AGAGTAGGAC | 1.03 |
| AAAGCTGACA | 0.972 |
| CGAATTTGGG | 0.979 |
| GGCGTTGGAG | 1.01 |
| GGGACAAAGC | 0.99 |
| GTGCGAGAGG | 1.03 |
| CTTGCGGCAC | 1.42 |
| AGGGAAGTAG | 0.991 |
| TTCTTGACCG | 0.994 |
| ATTGTCATAG | 0.983 |
| AGTCCGATAT | 1.01 |
| GGAGGCTATA | 1.07 |
| TATAGCAAAA | 1.07 |
| GCTCGACCCG | 1.02 |
| CTATGAAGA | 1.04 |
| GGAAATTCCG | 0.992 |
| ATCAGCTTTT | 1.01 |
| GTTCCAGGAG | 1.3 |
| GCTTAAAGTG | 0.958 |
| TGGTGACATT | 1.02 |
| CTGTTCCAGA | 1.02 |
| CGAGAGCCCC | 1 |

| Sequence | switch fluorescence ratio |
| --- | --- |
| AACCGAAATC | 2.11 |
| ATGCGTGGTT | 0.98 |
| GGCTCTCCTT | 0.983 |
| ACGGGGATAA | 1.03 |
| GAATGCAGGT | 1.01 |
| CGCAGCTTTT | 1.79 |
| GAAATCAGG | 1.01 |
| TTATATTTC | 1.02 |
| AACTTCCA | 1.07 |
| CGGTGGAAG | 0.979 |
| TGATTTCGAG | 0.955 |
| GAAATGGCGC | 1.06 |
| ACTTAGATCA | 1.09 |
| ATCCGAGCCT | 1.16 |
| TTAGCGATGG | 1.19 |
| CCGCGTTTTG | 1.18 |
| TCCGGACACG | 1.03 |
| GTTAGGCATC | 1.03 |
| ACTCTACTCG | 1.29 |
